{"source": "the supplement of paper PMC8728848", "binders": {"B1": {"name": "rAAL-2 (Agrocybe aegerita) (protein)", "chain": "MTSNVITQDLPIPVASRGFADIVGFGLDGVVIGRNAVNLQPFLAVKNFAQNAGGWLTTKHVRLIADTTGTGKGDIVGFGNAGVYVSVNNGKNTFADPPKMVIANFGYDAGGWRVEKHLRYLADIRKIGRADIIGFGEKGVLVSRNNGGLNFGPATLVLKDFGYDAGGWRLDRHLRFLADVTGNGHLDIVGFGDKHVFISRNNGDGTFAPAKSVIDNFCIDAGGWKIGDHPRFVADLTGDGTADIIGCGKAGCWVALNNGGGVFGQVKLVINDFGTDKGWQAAKHPRFIADLTGNGRGDVVGFGNAGVYVALNNGDGTFQSAKLVLKDFGVQQGWTVSKHRRFVVDLTGDGCADIIGFGEKETLVSYNDGKGNFGPVKALTNDFSFSGGKWAPETTVCWMANLDSSRH"}}, "test_in_all_cases": "glycan array binding signal (z-score within array); higher = stronger binding", "conditions_in_all_cases": "glycan notation: IUPAC condensed, linker removed", "key": {"[1]": {"target": "GlcNAc(b1-3)Gal(b1-4)GlcNAc(b1-3)Gal(b1-4)GlcNAc(b1-3)Gal(b1-4)GlcNAc(b1-3)Gal(b1-4)GlcNAc(b1-2)Man(a1-3)[GlcNAc(b1-3)Gal(b1-4)GlcNAc(b1-3)Gal(b1-4)GlcNAc(b1-3)Gal(b1-4)GlcNAc(b1-3)Gal(b1-4)GlcNAc(b1-2)Man(a1-6)]Man(b1-4)GlcNAc(b1-4)GlcNAc", "outline": "(§1)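 Negative Z-scores can be read as non-binding. The Z-score is calculated within each array and then averaged across arrays of one protein sequence at different concentrations or buffers and across linkers. Arrays, 3228 in all, were curated from the Consortium for Functional Glycomics database and kept only where the protein sequence was available.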"}, "[2]": {"target": "GlcNAc(b1-3)Gal(b1-4)GlcNAc(b1-3)Gal(b1-4)GlcNAc(b1-3)Gal(b1-4)GlcNAc(b1-3)Gal(b1-4)GlcNAc(b1-2)Man(a1-3)[GlcNAc(b1-3)Gal(b1-4)GlcNAc(b1-3)Gal(b1-4)GlcNAc(b1-3)Gal(b1-4)GlcNAc(b1-3)Gal(b1-4)GlcNAc(b1-2)Man(a1-6)]Man(b1-4)GlcNAc(b1-4)[Fuc(a1-6)]GlcNAc", "outline": "as §1"}, "[3]": {"target": "GlcNAc(b1-3)Gal(b1-4)GlcNAc(b1-3)Gal(b1-4)GlcNAc(b1-3)Gal(b1-4)GlcNAc(b1-3)Gal(b1-4)GlcNAc(b1-2)[GlcNAc(b1-3)Gal(b1-4)GlcNAc(b1-3)Gal(b1-4)GlcNAc(b1-3)Gal(b1-4)GlcNAc(b1-3)Gal(b1-4)GlcNAc(b1-6)]Man(a1-6)[GlcNAc(b1-3)Gal(b1-4)GlcNAc(b1-3)Gal(b1-4)GlcNAc(b1-3)Gal(b1-4)GlcNAc(b1-3)Gal(b1-4)GlcNAc(b1-2)Man(a1-3)]Man(b1-4)GlcNAc(b1-4)[Fuc(a1-6)]GlcNAc", "outline": "as §1"}, "[4]": {"target": "GlcNAc(b1-3)Gal(b1-4)GlcNAc(b1-3)Gal(b1-4)GlcNAc(b1-3)GalNAc", "outline": "as §1"}, "[5]": {"target": "GlcNAc(b1-3)Gal(b1-4)GlcNAc(b1-3)GalNAc", "outline": "as §1"}, "[6]": {"target": "GlcNAc(b1-3)Gal(b1-4)GlcNAc(b1-3)[GlcNAc(b1-3)Gal(b1-4)GlcNAc(b1-3)]GalNAc", "outline": "as §1"}, "[7]": {"target": "GlcNAc(b1-3)Gal(b1-4)GlcNAc(b1-6)[Gal(b1-3)]GalNAc", "outline": "as §1"}, "[8]": {"target": "GlcNAc(b1-3)Gal(b1-4)GlcNAc(b1-6)[GlcNAc(b1-3)Gal(b1-3)]GalNAc", "outline": "as §1"}, "[9]": {"target": "GlcNAc(b1-3)Gal(b1-4)GlcNAc(b1-6)[GlcNAc(b1-3)]Gal(b1-4)GlcNAc", "outline": "as §1"}, "GlcNAc(b1-3)GalNAc": {"target": "GlcNAc(b1-3)GalNAc", "outline": "as §1"}, "GlcNAc(b1-3)Man": {"target": "GlcNAc(b1-3)Man", "outline": "as §1"}, "[10]": {"target": "GlcNAc(b1-3)[GlcNAc(b1-4)][GlcNAc(b1-6)]GlcNAc", "outline": "as §1"}, "[11]": {"target": "GlcNAc(b1-3)[GlcNAc(b1-6)]Gal(b1-4)GlcNAc", "outline": "as §1"}, "[12]": {"target": "GlcNAc(b1-3)[GlcNAc(b1-6)]GalNAc", "outline": "as §1"}, "[13]": {"target": "GlcNAc(b1-4)Gal(b1-4)GlcNAc", "outline": "as §1"}, "GlcNAc(b1-4)GlcNAc": {"target": "GlcNAc(b1-4)GlcNAc", "outline": "as §1"}, "[14]": {"target": "GlcNAc(b1-4)GlcNAc(b1-4)GlcNAc", "outline": "as §1"}, "[15]": {"target": "GlcNAc(b1-4)GlcNAc(b1-4)GlcNAc(b1-4)GlcNAc(b1-4)GlcNAc", "outline": "as §1"}, "[16]": {"target": "GlcNAc(b1-4)GlcNAc(b1-4)GlcNAc(b1-4)GlcNAc(b1-4)GlcNAc(b1-4)GlcNAc", "outline": "as §1"}, "[17]": {"target": "GlcNAc(b1-4)[GlcNAc(b1-6)]GalNAc", "outline": "as §1"}, "[18]": {"target": "GlcNAc(b1-6)Gal(b1-4)GlcNAc", "outline": "as §1"}, "GlcNAc(b1-6)GalNAc": {"target": "GlcNAc(b1-6)GalNAc", "outline": "as §1"}, "GlcNAc3Prop(b1-4)GlcNAc": {"target": "GlcNAc3Prop(b1-4)GlcNAc", "outline": "as §1"}, "[19]": {"target": "GlcNAc6S(b1-3)Gal(b1-4)GlcNAc", "outline": "as §1"}, "Kdn(a2-3)Gal(b1-3)GalNAc": {"target": "Kdn(a2-3)Gal(b1-3)GalNAc", "outline": "as §1"}, "Kdn(a2-3)Gal(b1-3)GlcNAc": {"target": "Kdn(a2-3)Gal(b1-3)GlcNAc", "outline": "as §1"}, "Kdn(a2-3)Gal(b1-4)Glc": {"target": "Kdn(a2-3)Gal(b1-4)Glc", "outline": "as §1"}, "Kdn(a2-3)Gal(b1-4)GlcNAc": {"target": "Kdn(a2-3)Gal(b1-4)GlcNAc", "outline": "as §1"}, "[20]": {"target": "Kdn(a2-3)Gal(b1-4)[Fuc(a1-3)]GlcNAc", "outline": "as §1"}, "Kdn(a2-6)Gal(b1-4)GlcNAc": {"target": "Kdn(a2-6)Gal(b1-4)GlcNAc", "outline": "as §1"}, "[21]": {"target": "Man(a1-2)Man(a1-2)Man(a1-3)Man", "outline": "as §1"}, "[22]": {"target": "Man(a1-2)Man(a1-2)Man(a1-6)[Man(a1-3)]Man", "outline": "as §1"}, "Man(a1-2)Man(a1-3)Man": {"target": "Man(a1-2)Man(a1-3)Man", "outline": "as §1"}, "[23]": {"target": "Man(a1-2)Man(a1-3)[Man(a1-2)Man(a1-6)]Man", "outline": "as §1"}, "[24]": {"target": "Man(a1-2)Man(a1-3)[Man(a1-2)Man(a1-6)]Man(a1-6)[Man(a1-2)Man(a1-2)Man(a1-3)]Man", "outline": "as §1"}, "[25]": {"target": "Man(a1-2)Man(a1-3)[Man(a1-2)Man(a1-6)]Man(a1-6)[Man(a1-2)Man(a1-2)Man(a1-3)]Man(b1-4)GlcNAc(b1-4)GlcNAc", "outline": "as §1"}, "[26]": {"target": "Man(a1-2)Man(a1-3)[Man(a1-6)]Man(a1-6)[Man(a1-2)Man(a1-3)]Man(b1-4)GlcNAc(b1-4)GlcNAc", "outline": "as §1"}}, "note": "Some of the results follow.", "data": [{"binder": "B1", "values": [{"measurement": "glycan array binding signal (z-score)", "setting": "[1]", "value": 4.12}, {"measurement": "glycan array binding signal (z-score)", "setting": "[2]", "value": 3.97}, {"measurement": "glycan array binding signal (z-score)", "setting": "[3]", "value": 2.88}, {"measurement": "glycan array binding signal (z-score)", "setting": "[4]", "value": 2.86}, {"measurement": "glycan array binding signal (z-score)", "setting": "[5]", "value": 3.11}, {"measurement": "glycan array binding signal (z-score)", "setting": "[6]", "value": 2.75}, {"measurement": "glycan array binding signal (z-score)", "setting": "[7]", "value": 3.58}, {"measurement": "glycan array binding signal (z-score)", "setting": "[8]", "value": 2.68}, {"measurement": "glycan array binding signal (z-score)", "setting": "[9]", "value": 3.18}, {"measurement": "glycan array binding signal (z-score)", "setting": "GlcNAc(b1-3)GalNAc", "value": 0.798}, {"measurement": "glycan array binding signal (z-score)", "setting": "GlcNAc(b1-3)Man", "value": 0.515}, {"measurement": "glycan array binding signal (z-score)", "setting": "[10]", "value": -0.339}, {"measurement": "glycan array binding signal (z-score)", "setting": "[11]", "value": 3.11}, {"measurement": "glycan array binding signal (z-score)", "setting": "[12]", "value": 0.938}, {"measurement": "glycan array binding signal (z-score)", "setting": "[13]", "value": -0.344}, {"measurement": "glycan array binding signal (z-score)", "setting": "GlcNAc(b1-4)GlcNAc", "value": 0.483}, {"measurement": "glycan array binding signal (z-score)", "setting": "[14]", "value": 0.153}, {"measurement": "glycan array binding signal (z-score)", "setting": "[15]", "value": 0.167}, {"measurement": "glycan array binding signal (z-score)", "setting": "[16]", "value": -0.006}, {"measurement": "glycan array binding signal (z-score)", "setting": "[17]", "value": -0.195}, {"measurement": "glycan array binding signal (z-score)", "setting": "[18]", "value": 0.285}, {"measurement": "glycan array binding signal (z-score)", "setting": "GlcNAc(b1-6)GalNAc", "value": 0.062}, {"measurement": "glycan array binding signal (z-score)", "setting": "GlcNAc3Prop(b1-4)GlcNAc", "value": 0.177}, {"measurement": "glycan array binding signal (z-score)", "setting": "[19]", "value": -0.312}, {"measurement": "glycan array binding signal (z-score)", "setting": "Kdn(a2-3)Gal(b1-3)GalNAc", "value": -0.108}, {"measurement": "glycan array binding signal (z-score)", "setting": "Kdn(a2-3)Gal(b1-3)GlcNAc", "value": -0.141}, {"measurement": "glycan array binding signal (z-score)", "setting": "Kdn(a2-3)Gal(b1-4)Glc", "value": -0.307}, {"measurement": "glycan array binding signal (z-score)", "setting": "Kdn(a2-3)Gal(b1-4)GlcNAc", "value": -0.254}, {"measurement": "glycan array binding signal (z-score)", "setting": "[20]", "value": -0.096}, {"measurement": "glycan array binding signal (z-score)", "setting": "Kdn(a2-6)Gal(b1-4)GlcNAc", "value": -0.269}, {"measurement": "glycan array binding signal (z-score)", "setting": "[21]", "value": -0.217}, {"measurement": "glycan array binding signal (z-score)", "setting": "[22]", "value": -0.259}, {"measurement": "glycan array binding signal (z-score)", "setting": "Man(a1-2)Man(a1-3)Man", "value": -0.33}, {"measurement": "glycan array binding signal (z-score)", "setting": "[23]", "value": -0.275}, {"measurement": "glycan array binding signal (z-score)", "setting": "[24]", "value": -0.35}, {"measurement": "glycan array binding signal (z-score)", "setting": "[25]", "value": -0.274}, {"measurement": "glycan array binding signal (z-score)", "setting": "[26]", "value": -0.277}]}]}
